Values joined by “and” are separate entries in the source; they are usually repeats but may differ in a detail not shown here. Equal values may be shown once. Among all 410,000 compounds or so, about 530 (0.13%) were called active. The shares of active, inactive and inconclusive entries below differ from those in the screen. Calls come from the whole dose curve; as a rule, active = well fitted inhibition curve with a large enough effect; inconclusive = small, poorly fitted or top-dose-only effect, or another doubt; inactive = no such curve, though single readings can be large or run the other way. Potencies beside an inconclusive call are fits to weak or partial responses and may not hold up.
test: qHTS of GLP-1 Receptor Inverse Agonists: Cytotox Screen; conditions: HEK293 cAMP-luciferase reporter cells, luminescence, 24 h; activity change, negative = inhibition: at 38.3 µM (top of the series) unless noted
Procedure, shortened: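 Step one: seed cells (200 cells/uL, DMEM with 10% Nu serum, 1% pen-strep). Step two: 12-hour incubation at 37 deg C. Step three: pin 23 nL compound, incubate 24 hr. Step four: add luciferase reagent, read luminescence 12 min later.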
% is set by controls: 0 for no effect and ±100 for the full control effect; potency is the fitted concentration of half-maximal effect.

| Compound | Potency | activity change, negative = inhibition |
| --- | --- | --- |
| CC[C@]1(c2ccccc2OC)ON(c2ccccc2C(F)(F)F)C1=O | inconclusive: 11.2 µM [inhibitor, partial curve, poor fit] |  |
| COc1ccc(CNC(=O)CCC2N=C3c4ccccc4N=C(SCc4ccc(F)cc4)N3C2=O)cc1 (configuration not stated) | inactive |  |
| O=C(C1CCCCC1)N(Cc1cccnc1)c1nc2c(F)cc(F)cc2s1 | inactive |  |
| C/C(=N\Nc1ccc(S(N)(=O)=O)cc1[N+](=O)[O-])c1ccc2c(c1)OCO2 | inconclusive: 28.2 µM [inhibitor, single point] |  |
| O=C1/C(=C\c2ccc(Cl)c(Cl)c2)CN(C(=O)CCN2CCOCC2)C/C1=C/c1ccc(Cl)c(Cl)c1 | active: 2.82 µM |  |
| COc1cc(NS(=O)(=O)c2ccc3[nH]c4c(c3c2)CCCC4)cc(OC)c1OC | inconclusive: 4.47 µM [inhibitor, full curve] |  |
| C=Cc1ccc(Cn2c(C(=O)O)c(CNCCc3ccccc3)c3ccc(C)cc32)cc1 | inconclusive: 11.2 µM [inhibitor, single point] |  |
| CC(C)N(Cc1cn[nH]c1-c1ccc(-c2ccccc2)cc1)Cc1nccn1C | inconclusive: 28.2 µM [inhibitor, single point] |  |
| CC(C(=O)NC1C=CS(=O)(=O)C1)N1C(=O)/C(=C/c2ccc(Cl)cc2)SC1=S (configuration not stated) | inconclusive: 7.94 µM [inhibitor, partial curve, poor fit] |  |
| COC(=O)N=Nc1c(O)[nH]c2ccc(Br)cc12 | inactive |  |
| Cc1cc(C)n2[nH]c(=O)c(N=Nc3cccc(C(F)(F)F)c3)c2n1 | inconclusive: 12.6 µM [inhibitor, partial curve, poor fit] |  |
| COc1ccc(C(NC(C)=O)c2ccc3cccnc3c2O)c(OC)c1 (configuration not stated) | inconclusive: 2.82 µM [inhibitor, full curve] |  |
| NC(=O)C1CCN(C(=O)CCC(=O)c2ccc(F)cc2)CC1 | inactive |  |
| CCOC(=O)Cn1c(-c2ccccn2)nc2ccccc21 | inactive |  |
| CCn1cc(C2=NC(CC(C)C)CO2)c2ccccc21 (configuration not stated) | inconclusive: 28.2 µM [inhibitor, single point] |  |
| Cc1cc(C)c(NC(=O)c2c(C)oc3c2C2=NCCN2C=N3)c(C)c1 | inactive |  |
| COc1ccc2[nH]cc(CCNC(=S)NCCc3ccccc3)c2c1 | inconclusive: 12.6 µM [inhibitor, partial curve, poor fit] |  |
| CCN1CCN(c2nc3sc4c(c3c(=O)n2-c2ccc(OC)cc2)CCCCC4)CC1 | inconclusive: 28.2 µM [inhibitor, single point] |  |
| CCc1ccc(-c2cc(C)no2)cc1S(=O)(=O)NCc1ccco1 | inactive |  |
| Cc1ccc(C(=O)N/N=C(/CC(=O)c2cccs2)C(F)(F)F)cc1 | inconclusive: 28.2 µM [inhibitor, single point] |  |
| CC[C@H](C)[C@@H](C(=O)N1CCNCC1)n1cc([C@@H](N)Cc2ccc(O)cc2)nn1 | inconclusive: 28.2 µM [inhibitor, single point] |  |

| Compound | Potency | activity change, negative = inhibition |
| --- | --- | --- |
| N#C/C(=C\c1cn(CC(=O)O)c2ccccc12)C(=O)NCc1ccccc1 | inconclusive: 3.16 µM [inhibitor, partial curve] |  |
| O=C(Nc1ccc(F)cc1)c1oc2ccccc2c1NC(=O)C1CCCCC1 | inactive |  |
| CN(C)CCCNC(=O)c1cc2sc3ccccc3c2s1 | inconclusive: 12.6 µM [inhibitor, single point] |  |
| CCN(CC(=O)Nc1ccc2c(c1)CCC2)Cc1nc2ccccc2c(=O)[nH]1 | inconclusive: 8.91 µM [inhibitor, partial curve, poor fit] |  |
| CCCNC(=O)c1ccc(-c2nc3ccccc3s2)s1 | inactive |  |
| CCC(=O)N1CCc2cc(S(=O)(=O)NCCN3CCC(C)CC3)ccc21 | inconclusive: 0.316 µM [inhibitor, full curve, poor fit] |  |
| CCOc1ccc(NC(=S)NC23CC4CC(CC(C4)C2)C3)cc1 | inactive |  |
| COc1ccc(-c2cn(Cc3ccc(C(N)=O)cc3)c(-c3ccncc3)n2)cc1 | inconclusive: 0.501 µM [inhibitor, full curve, poor fit] |  |
| Cc1ccc2nc(N(CCCN(C)C)C(=O)COc3ccc(Cl)cc3)sc2c1 | inconclusive: 15.8 µM [inhibitor, single point] |  |
| CN1CCN(CC(O)COc2ccc(C34CC5CC(CC(C5)C3)C4)cc2)CC1 (configuration not stated) | inconclusive: 14.1 µM [inhibitor, single point] |  |
| O=C(c1ccccc1)N1CCc2cc(CNS(=O)(=O)c3ccc(Cl)s3)ccc21 | inactive |  |
| CCOC(=O)C1CCCN(C(=O)c2cc3c(C)nc4ccccc4c3o2)C1 (configuration not stated) | inactive |  |
| Nc1cccc2c1C(=O)N(CCOc1ccccc1F)C2=O | inactive |  |
| Nc1nc(N)c2c(ccc3c2ccn3Cc2cccc([N+](=O)[O-])c2)n1 | inconclusive: 14.1 µM [inhibitor, partial curve, poor fit] |  |
| Cc1cc(C)c2nc(-c3ccccn3)cc(C(=O)Nc3ccc(S(=O)(=O)Nc4cc(C)on4)cc3)c2c1 | inconclusive: 31.6 µM [inhibitor, single point] |  |
| COC1=CC(=O)C=C(OC)C1=O | inconclusive: 11.2 µM [inhibitor, single point] |  |
| CC(=O)Nc1ccccc1NS(=O)(=O)c1ccc(Cl)cc1 | inconclusive: 2.24 µM [inhibitor, partial curve, poor fit] |  |
| Oc1c(CN2CCOCC2)cc(COCc2ccccc2)c2cccnc12 |  | inconclusive: -92.9% [inhibitor] [at 1.53 µM] |
| CCN1CCN(Cc2ccc(NC(=O)c3ccc(C)c(NC(=O)c4c[nH]c5cc(C(F)(F)F)ccc5c4=O)c3)cc2C(F)(F)F)CC1 | inconclusive: 28.2 µM [inhibitor, single point] and inconclusive: 11.2 µM [inhibitor, single point] |  |
| O=C(Nc1ccc(NC(=O)c2ccco2)cc1)c1ccc2c(c1)OCO2 | inconclusive: 10 µM [inhibitor, partial curve] |  |
| CCCOc1ccc(CNC(=S)N/N=C/c2ccc([N+](=O)[O-])cc2)cc1 | inconclusive: 3.98 µM [inhibitor, full curve, poor fit] |  |

Reference: PubChem BioAssay AID624418 (National Center for Advancing Translational Sciences (NCATS), 2012)
